In all, about 16,000 sequences were measured (“Z-score”: median about -0.37, highest 2% from about 3.2 on). The list shows a part of the results.
tested on: RBM10 RRM1-ZnF (GST-tagged construct); assay: RNAcompete 7-mer binding Z-score; higher = stronger binding preference
Method in brief: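 GST-tagged RBM10 constructs (20 pmol) and a designed pool of 241 399 RNAs up to 41 nt (1.5 nmol) were allowed to bind for 30 min at 4°C in 1 ml Hepes pH 7.8 buffer with glutathione Sepharose beads. After four 2-min washes at 4°C, bound RNA was identified by microarray hybridisation. Enrichment was scored per heptamer motif as a one-sided Z-score across the probes containing it.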

Row | Sequence | RNAcompete 7-mer binding Z-score
1 | AGCGACC | -0.334
2 | UUUAGAU | -0.448
3 | ACUACCA | -0.681
4 | GCGUGAA | 0.485
5 | UCAAGCU | -0.717
6 | CCGUUGU | -0.548
7 | CCGACGU | -0.272
8 | UAGGCCC | -0.474
9 | CGAGAGA | 0.563
10 | ACUAAAC | -0.662
11 | AUACGGC | 0.0593
12 | GCGAGUG | 1.59
13 | CAUUGCC | -0.915
14 | ACCCAAU | -0.678
15 | GUCUUGU | -0.422
16 | GCUAAGG | 1.09
17 | ACGUGUC | -0.574
18 | CUUGCCC | -0.724
19 | GACCUCU | -0.876
20 | UGCAAGA | -0.0317
21 | GUAUAUU | -0.191
22 | AAGGUGG | 4.39
23 | GUCAAAC | -0.474

Row | Sequence | RNAcompete 7-mer binding Z-score
24 | GUCGAAA | -0.126
25 | UUAUACC | -0.834
26 | AUAGCCC | -0.714
27 | AGGUAAU | 1.32
28 | GGGUAGG | 4.65
29 | AACCUCC | -0.743
30 | UAGCACA | -0.373
31 | CAGAUUA | -0.347
32 | AUUAGUU | -0.441
33 | GGGUUAC | 2.16
34 | CUGACAC | -0.659
35 | GACGCAA | -0.243
36 | UAUGUCC | -0.776
37 | CCUCAAC | -0.818
38 | GCGCGGG | 1.8
39 | ACCAAAC | -0.646
40 | UUUCCGA | -0.646
41 | UGCGCUC | -0.578
42 | AGUAAUA | -0.285
43 | AUAGAGG | 1.55
44 | ACAAGUA | -0.201
45 | GGGUGAA | 3.87
46 | GACGGUU | 0.982

Row | Sequence | RNAcompete 7-mer binding Z-score
47 | AAAGAGA | 0.865
48 | AACAUUA | -0.389
49 | CCACCAU | -0.535
50 | UGGCGGU | 1.49
51 | UACCUAG | -0.766
52 | AUUAACC | -0.646
53 | GCGACUG | -0.0479
54 | GCGUUGG | 1.4
55 | UAUCGGU | -0.194
56 | ACGGGGU | 4.07
57 | ACGGUGC | 0.391
58 | UGUGUCC | -0.415
59 | CCACUCC | -0.662
60 | GACGGAU | 1.09
61 | CAAAGCG | -0.0902
62 | CGUUAGG | 0.465
63 | ACCAGAA | -0.253
64 | CGGUACU | -0.162
65 | UACAUGU | -0.162
66 | CGUCAGA | -0.548
67 | UAUUACG | -0.132
68 | ACCCCAC | -0.379
69 | CACGUGU | -0.522

Row | Sequence | RNAcompete 7-mer binding Z-score
70 | AGCCCCC | -0.129
71 | GCUAUUG | -0.405
72 | GCGAAUA | -0.0317
73 | UAUUUGG | -0.0999
74 | GGUAGAC | 1.99
75 | CCUCAGA | -0.629
76 | CACAUUC | -0.698
77 | CUUUUCC | -0.893
78 | CGGCAUG | 0.342
79 | GCCUUGU | -0.717
80 | CUAACAU | -0.636
81 | CGCCACU | -0.604
82 | ACGGUCA | 0.163
83 | CGGGCUA | 0.599
84 | CUGAAGU | -0.266
85 | UUGCUUA | -0.737
86 | UGCCGGG | 0.527
87 | ACCUAAC | -0.802
88 | GGUAGGA | 3.4
89 | AGCACAU | -0.513
90 | CAUUGGU | -0.00571
91 | UGCGUCG | -0.106
92 | UUUACCA | -0.834

Reference: the supplement of paper PMC5499739
